{"source": "PubChem BioAssay AID651820", "about": "(National Center for Advancing Translational Sciences (NCATS), 2012)", "note": "“And” between values parts separate entries of the source, which are not always exact repeats. Equal entries are not always repeated. In all, about 340,000 compounds went through this assay and about 12,000 (3.5%) were called active. Inconclusive means that the source gave no clear call. Such entries were picked first, then a sample of the others. Calls follow the shape of the dose curve; as a rule, active = well fitted inhibition curve with a large enough effect; inconclusive = small, poorly fitted or top-dose-only effect, or another doubt; inactive = no such curve, though single readings can be large or run the other way. Where the call is inconclusive, the potency comes from a doubtful curve fit.", "data": [{"assay": "qHTS Assay for Inhibitors of Hepatitis C Virus (HCV); also: potency is read from the fitted curve at half-maximal effect; tags tell the direction and shape of the fitted curve; as to activity change, negative = inhibition: % is scaled to controls: 0 for no effect and ±100 for the full control effect", "conditions": "Huh7.5.1 HCVcc-Cre (HCVcc is cell-culture hepatitis C virus) infection, luciferase reporter, 44 h; activity change, negative = inhibition: at 41.8 µM (top of the series) unless noted", "outline": "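HCVcc-Cre virus at an moi near 0.5 was added right after compound to cells cultured 4 h from seeding (1,000 cells/well). Luciferase activity was determined 44 h later, 15 min after substrate addition at RT.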", "values": [{"molecule": "CCCCCc1cc(=O)oc2c(C(CCN(CC)CC)c3ccc(OC)cc3)c(OC)cc(OC)c12", "note": "(stereo not given)", "Potency": "inconclusive: 31.6 µM [inhibitor, single point]"}, {"molecule": "C=CCc1ccc(OCCn2cccc2C=O)c(OC)c1", "Potency": "inconclusive: 20 µM [inhibitor, single point]"}, {"molecule": "O=C(Nc1cccc(C(=O)N2CCN(c3ccc(F)cc3)CC2)c1)c1ccccc1", "Potency": "inconclusive: 22.4 µM [inhibitor, single point]"}, {"molecule": "COc1c2c(cc3oc(=O)c4c5ccc(O)cc5oc4c13)OC(C)(C)CC2", "Potency": "inconclusive: 2 µM [inhibitor, full curve, poor fit]"}, {"molecule": "O=C(Nc1ccc(Br)cc1)c1cc(-c2ccc3c(c2)OCO3)on1", "activity change, negative = inhibition": "inactive: 10%"}, {"molecule": "CC(=O)Nc1ccc(S(=O)(=O)N(C)CC(=O)NNc2c(F)c(F)cc(F)c2F)cc1", "activity change, negative = inhibition": "inactive: 5.03%"}, {"molecule": "c1ccc(-c2noc(-c3cccc4ccccc34)n2)nc1", "Potency": "inconclusive: 10 µM [inhibitor, partial curve]"}, {"molecule": "CCOc1ccccc1-n1nnnc1SCC(=O)Nc1cc2oc3ccccc3c2cc1OC", "Potency": "inconclusive: 1.78 µM [inhibitor, full curve, poor fit]"}, {"molecule": "COc1ccc(NS(=O)(=O)c2ccc(N3CCOCC3)c(N)c2)cc1", "Potency": "active: 6.31 µM"}, {"molecule": "CCOc1ccccc1NC(=O)Nc1ccc(Br)cc1C", "Potency": "inconclusive: 12.6 µM [inhibitor, single point]"}, {"molecule": "COc1ccc(-c2nn(-c3ccccc3)cc2/C=N/n2cnnc2)cc1OC", "Potency": "inconclusive: 31.6 µM [inhibitor, single point]"}, {"molecule": "O=C(Cc1ccccc1[N+](=O)[O-])Nc1cccc(S(=O)(=O)NC2=NCCCCC2)c1", "Potency": "inconclusive: 14.1 µM [inhibitor, single point]"}, {"molecule": "COc1ccc(C(=O)NCc2nnc(SCC(=O)Nc3cc(C)cc(C)c3)o2)cc1OC", "Potency": "inactive"}, {"molecule": "COc1ccc(Nc2nc(-c3ccccc3)nc3ccccc23)cc1S(=O)(=O)N1CCOCC1", "Potency": "active: 22.4 µM"}, {"molecule": "C/C(=N\\Nc1ccc([N+](=O)[O-])cc1)c1ccc(-n2nncc2C)cc1", "Potency": "inconclusive: 31.6 µM [inhibitor, single point]"}, {"molecule": "O=C(NCCc1cccs1)C12CN(Cc3ccccc3)CC1C(c1cccc([N+](=O)[O-])c1)=NO2", "note": "(stereo not given)", "Potency": "inconclusive: 31.6 µM [inhibitor, single point]"}, {"molecule": "Cc1onc(-c2ccccc2Cl)c1C(=O)N/N=C(\\N)COc1ccc(Cl)cc1", "Potency": "inconclusive: 22.4 µM [inhibitor, single point]"}, {"molecule": "Cc1ccc(OC(C)C(=O)Nc2ccncc2)cc1C", "note": "(stereo not given)", "Potency": "inconclusive: 17.8 µM [inhibitor, single point]"}, {"molecule": "O=C(Nc1cc(-c2ccccc2)nn1C1CCCCC1)c1ccc(Cl)cc1", "Potency": "active: 2.51 µM"}, {"molecule": "Cc1cccn2c(=O)c3cc(C(=O)NC4CCCC4)c(=N)n(Cc4ccc(F)cc4)c3nc12", "Potency": "active: 11.2 µM"}, {"molecule": "C=CCC[C@@H](Cc1ccc(F)cc1)C(=O)OC[C@@H](C)NC(=O)[C@H](CC=C)CC(=O)N(CCO)Cc1ccccc1", "Potency": "inconclusive: 31.6 µM [inhibitor, single point]"}, {"molecule": "CC(Sc1nnc(C2CC2)n1C1CC1)C(=O)Nc1cccc(S(=O)(=O)N2CCOCC2)c1", "note": "(stereo not given)", "activity change, negative = inhibition": "inactive: 7.68%"}, {"molecule": "COc1ccc(-n2c(=O)c(CCC(=O)NCCc3ccccc3F)nc3ccccc32)cc1", "Potency": "inconclusive: 10 µM [inhibitor, partial curve]"}, {"molecule": "COc1ccc(/C=C/C=C2C(=O)NC(=S)NC2=O)cc1", "Potency": "inconclusive: 31.6 µM [inhibitor, single point]"}, {"molecule": "CC(C)C[C@@H](CNCC(=O)[C@H](C)NC(=O)c1[nH]cnc1C(=O)N[C@@H](C)CN)NC(=O)c1nc[nH]c1C(=O)N[C@@H](CC(=O)O)C(=O)O", "activity change, negative = inhibition": "inactive: 10.9%"}, {"molecule": "Cn1cc(S(=O)(=O)N2CCc3ccccc32)cc1C(=O)Nc1ccc(Cl)cc1", "Potency": "inconclusive: 14.1 µM [inhibitor, single point]"}, {"molecule": "O=C(NCC1CCCO1)c1cccc(Oc2ccc([N+](=O)[O-])cc2)c1", "note": "(stereo not given)", "Potency": "inconclusive: 25.1 µM [inhibitor, single point]"}, {"molecule": "COc1cc(C)c(Br)cc1S(=O)(=O)N1CCCC1", "Potency": "inconclusive: 31.6 µM [inhibitor, single point]"}, {"molecule": "CCOC(=O)N1CCN(Cc2nc3c(c(=O)n(C)c(=O)n3C)n2Cc2ccccc2)CC1", "Potency": "inconclusive: 35.5 µM [inhibitor, single point]"}, {"molecule": "O=[N+]([O-])c1ccc(COc2ccccc2CN2CCCCC2)cc1", "Potency": "inconclusive: 3.55 µM [inhibitor, single point]"}, {"molecule": "O=C1c2ccccc2C(Nc2ccc3nc(-c4cccnc4)[nH]c3c2)N1Cc1ccco1", "note": "(stereo not given)", "Potency": "inactive and inconclusive: 12.6 µM [inhibitor, single point]"}, {"molecule": "O=[N+]([O-])C(/C=C(\\Cl)[N+](=O)[O-])=C1N(Cc2ccc(Cl)nc2)CCN1Cc1ccc(Cl)nc1", "Potency": "inconclusive: 25.1 µM [inhibitor, single point]"}, {"molecule": "COc1cc2c(cc1OC)C(c1cc3ccccc3oc1=O)=NC(C)(C)C2", "Potency": "inconclusive: 31.6 µM [inhibitor, single point]"}, {"molecule": "COc1ccc(NC(=O)CSc2nnc(Cc3ccccc3)c(=O)n2N)cc1OC", "activity change, negative = inhibition": "inconclusive: -79.5% [inhibitor]"}, {"molecule": "O=C(N/N=C/c1ccc2c(c1)OCO2)c1ccc(COc2cccc3cccnc23)cc1", "Potency": "active: 12.6 µM"}, {"molecule": "Clc1cccc(CNc2nc(-c3cccnc3)nc3ccccc23)c1", "Potency": "inconclusive: 31.6 µM [inhibitor, single point]"}, {"molecule": "N#Cc1nc(-c2cccc(Cl)c2)oc1NCc1cccnc1", "Potency": "inconclusive: 2.51 µM [inhibitor, full curve]"}, {"molecule": "Cc1ccc(Cn2c(CN3CCN(C(=O)c4ccco4)CC3)nc3c2c(=O)n(C)c(=O)n3C)cc1", "Potency": "inconclusive: 5.62 µM [inhibitor, single point]"}, {"molecule": "N/N=C(/Cc1nc2ccccc2[nH]1)c1ccc([N+](=O)[O-])cc1", "Potency": "inconclusive: 31.6 µM [inhibitor, single point]"}, {"molecule": "CC(C)Oc1ccc(CN2CCCC(CO)(Cc3ccccc3)C2)cc1CO", "note": "(stereo not given)", "activity change, negative = inhibition": "inactive: -2.48%"}]}]}
